In the supplement of paper PMC7826260:
The list shows a part of the results. Each Rep nickase domain was tested in vitro on the same pool of single strands for 1 h at 37 °C with 3 µM enzyme; only the middle of the 90-letter strands is printed. Numbers give uncut DNA relative to the enzyme-free pool, as log2; more negative means more cut, near 0 not cut, and no call is made. Reads are scaled to the total; values above 0 arise when much of the pool is cut.

What follows are sequences tested on T1, Rep nickase domain of Muscovy duck circovirus (assay: uncleaved DNA left, log2 of reads against the no-enzyme library (log2 ratio); higher = less cleavage (more negative = more Rep cleavage of the k-mer); sequences stand for … in CTCGTCCG…ACCGGAGA).
T1 sequence (residues 1-111, tag not shown): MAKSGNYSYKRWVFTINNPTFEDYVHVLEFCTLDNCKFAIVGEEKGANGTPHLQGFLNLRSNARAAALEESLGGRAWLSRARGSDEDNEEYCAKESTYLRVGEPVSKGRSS
Description: (§1)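 A pool of 90-nt single-stranded DNAs with seven random bases just before the constant AC of the nick site (name = the seven bases) was cut by 3 µM recombinant His6-SUMO-tagged Rep nickase domain (300 nM DNA, 50 mM HEPES pH 8.0, 50 mM NaCl, 1 mM MnCl2, 1 h, 37 °C, three replicates). Uncut DNA was amplified and sequenced.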

| Sequence | uncleaved DNA left (log2) |
| --- | --- |
| ACGGTGG | -0.167 |
| GGCACGG | -0.00366 |
| CTTTTAT | -0.662 |
| CTGTATT | -3.36 |
| TCGTAAA | 0.15 |
| CTTCTGA | -0.0012 |
| AGGTGCT | -0.244 |
| GGGGACT | 0.0376 |
| TCTGTCC | 0.066 |
| GAGTATA | 0.0104 |
| ATAAGGC | -0.0136 |
| GCCCAAA | -0.052 |
| CACGCCA | -0.0867 |
| TCCACGG | 0.0109 |
| TAACAGC | -0.0144 |
| GTGAACG | 0.154 |
| CATGCCT | -0.0579 |
| GACTTCA | -0.131 |
| AAGAGGT | 0.0287 |
| TTGTGAT | 0.0422 |

| Sequence | uncleaved DNA left (log2) |
| --- | --- |
| TCTGTCA | -0.049 |
| ATCTCCC | -0.138 |
| GGGAGAT | -0.0459 |
| CCGCGCC | -0.0749 |
| TAGCCCA | -0.0997 |
| CAGAAAA | -0.066 |
| GATACGT | 0.0171 |
| ATCGGGG | 0.172 |
| TTTAAGT | -0.151 |
| CTGGGCT | 0.174 |
| AAATTTG | 0.0211 |
| GTCAGTT | -0.0593 |
| AGAGAGA | 0.063 |
| ATAGGAA | 0.0516 |
| TCCCATT | -0.0874 |
| ACCACAG | -0.0249 |
| CTGTTCA | -0.125 |
| ATGCGGA | -0.0421 |
| CACAGTT | 0.0821 |
| TTGACAA | 0.0524 |

The sequences below were run on T2, Rep nickase domain of banana bunchy top virus in the same assay as above.
T2 sequence (residues 1-94, tag not shown): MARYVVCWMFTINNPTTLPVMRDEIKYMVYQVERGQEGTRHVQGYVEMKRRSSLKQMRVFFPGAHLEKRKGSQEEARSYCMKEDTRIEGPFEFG
Description: as §1

| Sequence | uncleaved DNA left (log2) |
| --- | --- |
| ACGGTGG | -0.172 |
| GGCACGG | 0.129 |
| CTTTTAT | -0.0827 |
| CTGTATT | -3.04 |
| TCGTAAA | 0.0536 |
| CTTCTGA | 0.0086 |
| AGGTGCT | 0.00961 |
| GGGGACT | 0.227 |
| TCTGTCC | -0.0303 |
| GAGTATA | -0.0537 |
| ATAAGGC | -0.0243 |
| GCCCAAA | 0.0781 |
| CACGCCA | -0.0424 |
| TCCACGG | 0.101 |
| TAACAGC | -0.06 |
| GTGAACG | 0.0626 |
| CATGCCT | -0.315 |
| GACTTCA | -0.0669 |
| AAGAGGT | 0.0528 |
| TTGTGAT | -0.0301 |

| Sequence | uncleaved DNA left (log2) |
| --- | --- |
| TCTGTCA | -0.107 |
| ATCTCCC | -0.0587 |
| GGGAGAT | 0.105 |
| CCGCGCC | -0.299 |
| TAGCCCA | -0.0624 |
| CAGAAAA | -0.0302 |
| GATACGT | 0.0396 |
| ATCGGGG | -0.0413 |
| TTTAAGT | -0.228 |
| CTGGGCT | 0.0505 |
| AAATTTG | 0.0269 |
| GTCAGTT | -0.00996 |
| AGAGAGA | 0.0565 |
| ATAGGAA | 0.0648 |
| TCCCATT | 0.0288 |
| ACCACAG | 0.042 |
| CTGTTCA | -0.0147 |
| ATGCGGA | -0.012 |
| CACAGTT | -0.147 |
| TTGACAA | -0.000746 |

The sequences below were run on T3, Rep nickase domain of cabbage leaf curl virus in the same assay as above.
T3 sequence (residues 1-116, tag not shown): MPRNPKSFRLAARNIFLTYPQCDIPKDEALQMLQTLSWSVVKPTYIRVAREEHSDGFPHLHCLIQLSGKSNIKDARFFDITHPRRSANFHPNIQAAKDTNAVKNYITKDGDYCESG
Description: as §1

| Sequence | uncleaved DNA left (log2) |
| --- | --- |
| ACGGTGG | -0.58 |
| GGCACGG | 0.393 |
| CTTTTAT | 0.137 |
| CTGTATT | -0.932 |
| TCGTAAA | 0.137 |
| CTTCTGA | -0.0418 |
| AGGTGCT | -0.384 |
| GGGGACT | 0.99 |
| TCTGTCC | 0.156 |
| GAGTATA | 0.139 |
| ATAAGGC | -1.95 |
| GCCCAAA | 0.191 |
| CACGCCA | -0.174 |
| TCCACGG | 0.546 |
| TAACAGC | -0.493 |
| GTGAACG | -0.35 |
| CATGCCT | -0.731 |
| GACTTCA | 0.211 |
| AAGAGGT | 0.311 |
| TTGTGAT | 0.147 |

| Sequence | uncleaved DNA left (log2) |
| --- | --- |
| TCTGTCA | -0.0618 |
| ATCTCCC | -0.188 |
| GGGAGAT | 0.841 |
| CCGCGCC | -0.629 |
| TAGCCCA | -0.223 |
| CAGAAAA | -0.0319 |
| GATACGT | 0.176 |
| ATCGGGG | 0.797 |
| TTTAAGT | -0.12 |
| CTGGGCT | 0.199 |
| AAATTTG | -0.509 |
| GTCAGTT | 0.227 |
| AGAGAGA | 0.307 |
| ATAGGAA | 0.332 |
| TCCCATT | -0.0763 |
| ACCACAG | -0.427 |
| CTGTTCA | -0.0888 |
| ATGCGGA | -0.471 |
| CACAGTT | -0.493 |
| TTGACAA | 0.397 |

The sequences below were run on T4, Rep nickase domain of chickpea chlorotic dwarf virus in the same assay as above.
T4 sequence (residues 1-124, tag not shown): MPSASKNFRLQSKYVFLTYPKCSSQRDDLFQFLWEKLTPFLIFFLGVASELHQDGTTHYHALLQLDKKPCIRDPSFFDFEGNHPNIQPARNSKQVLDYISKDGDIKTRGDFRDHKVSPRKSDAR
Description: as §1

| Sequence | uncleaved DNA left (log2) |
| --- | --- |
| ACGGTGG | -0.458 |
| GGCACGG | 1.38 |
| CTTTTAT | -1 |
| CTGTATT | -2.71 |
| TCGTAAA | -0.0526 |
| CTTCTGA | -0.182 |
| AGGTGCT | -0.519 |
| GGGGACT | 2.06 |
| TCTGTCC | 0.0186 |
| GAGTATA | -0.82 |
| ATAAGGC | -2.05 |
| GCCCAAA | 0.613 |
| CACGCCA | -1.92 |
| TCCACGG | 1.55 |
| TAACAGC | -1.65 |
| GTGAACG | -0.243 |
| CATGCCT | -2.69 |
| GACTTCA | -0.523 |
| AAGAGGT | 1.49 |
| TTGTGAT | 0.73 |

| Sequence | uncleaved DNA left (log2) |
| --- | --- |
| TCTGTCA | -0.751 |
| ATCTCCC | -0.133 |
| GGGAGAT | 2.09 |
| CCGCGCC | -0.65 |
| TAGCCCA | -2.33 |
| CAGAAAA | -0.247 |
| GATACGT | 0.417 |
| ATCGGGG | 1.16 |
| TTTAAGT | -0.642 |
| CTGGGCT | 0.299 |
| AAATTTG | -0.7 |
| GTCAGTT | 0.644 |
| AGAGAGA | 0.843 |
| ATAGGAA | 1.48 |
| TCCCATT | -1.8 |
| ACCACAG | 0.305 |
| CTGTTCA | -1.06 |
| ATGCGGA | -0.533 |
| CACAGTT | -0.726 |
| TTGACAA | 0.997 |

The sequences below were run on T5, Rep nickase domain of faba bean necrotic yellows virus in the same assay as above.
T5 sequence (residues 1-98, tag not shown): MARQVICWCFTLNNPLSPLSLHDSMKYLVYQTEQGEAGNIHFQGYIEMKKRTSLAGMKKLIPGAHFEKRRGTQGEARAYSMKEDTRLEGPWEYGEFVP
Description: as §1

| Sequence | uncleaved DNA left (log2) |
| --- | --- |
| ACGGTGG | -0.112 |
| GGCACGG | -0.109 |
| CTTTTAT | 0.00773 |
| CTGTATT | -2.8 |
| TCGTAAA | 0.0748 |
| CTTCTGA | -0.114 |
| AGGTGCT | -0.21 |
| GGGGACT | -0.0665 |
| TCTGTCC | 0.0389 |
| GAGTATA | -0.291 |
| ATAAGGC | 0.00879 |
| GCCCAAA | -0.0969 |
| CACGCCA | 0.0482 |
| TCCACGG | 0.0326 |
| TAACAGC | 0.00514 |
| GTGAACG | -0.0492 |
| CATGCCT | -0.0102 |
| GACTTCA | -0.0603 |
| AAGAGGT | 0.0499 |
| TTGTGAT | 0.0818 |

| Sequence | uncleaved DNA left (log2) |
| --- | --- |
| TCTGTCA | 0.0322 |
| ATCTCCC | -0.171 |
| GGGAGAT | -0.131 |
| CCGCGCC | -0.255 |
| TAGCCCA | -0.0632 |
| CAGAAAA | -0.0705 |
| GATACGT | -0.0894 |
| ATCGGGG | -0.0591 |
| TTTAAGT | -0.118 |
| CTGGGCT | 0.168 |
| AAATTTG | 0.0532 |
| GTCAGTT | -0.0471 |
| AGAGAGA | 0.0333 |
| ATAGGAA | -0.00302 |
| TCCCATT | -0.0935 |
| ACCACAG | 0.053 |
| CTGTTCA | -0.209 |
| ATGCGGA | 0.0675 |
| CACAGTT | 0.0187 |
| TTGACAA | -0.148 |
